T1: PRYSPRY domain of mouse TRIM21 with N-terminal 6xHis tag (mouse)
T1 construct: Expressed in E. coli; also called mTRIM21; mouse TRIM21.PRYSPRY
T1 chain: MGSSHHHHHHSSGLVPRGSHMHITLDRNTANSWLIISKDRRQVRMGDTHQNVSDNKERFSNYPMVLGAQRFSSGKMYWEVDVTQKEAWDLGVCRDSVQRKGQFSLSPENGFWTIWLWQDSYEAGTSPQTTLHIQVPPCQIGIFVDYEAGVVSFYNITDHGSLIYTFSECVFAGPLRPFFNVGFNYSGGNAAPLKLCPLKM

T2: PRYSPRY domain of human TRIM21 with N-terminal 6xHis tag (human)
T2 construct: Expressed in E. coli; also called hTRIM21; human TRIM21.PRYSPRY
T2 chain: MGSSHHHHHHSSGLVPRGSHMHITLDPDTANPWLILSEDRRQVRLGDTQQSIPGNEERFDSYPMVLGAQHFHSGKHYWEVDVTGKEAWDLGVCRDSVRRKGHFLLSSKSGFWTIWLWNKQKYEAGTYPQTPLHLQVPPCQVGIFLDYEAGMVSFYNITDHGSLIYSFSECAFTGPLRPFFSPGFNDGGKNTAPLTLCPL

B1: MRAH-G1d/MRAL-KT0 M428Y (antibody, human IgG1, kappa)
heavy: QVQLQESGPGLVRPSQTLSLTCTVSGYSITSDHAWSWVRQPPGRGLEWIGYISYSGITTYNPSLKSRVTMLRDTSKNQFSLRLSSVTAADTAVYYCARSLARTTAMDYWGQGSLVTVSS[human IgG1 constant region with M428Y (EU numbers) omitted here]
light: DIQMTQSPSSLSASVGDRVTITCRASQDISSYLNWYQQKPGKAPKLLIYYTSRLHSGVPSRFSGSGSGTDFTFTISSLQPEDIATYYCQQGNTLPYTFGQGTKVEIKRTVAAPSVFIFPPSDEQLKSGTASVVCLLNNFYPREAKVQWKVDNALQSGNSQESVTEQDSKDSTYSLSSTLTLSKADYEKHKVYACEVTHQGLSSPVTKSFNRGEC
notes: copies: 2 + 2
B2: MRAH-G1d/MRAL-KT0 N315A (antibody, human IgG1, kappa)
heavy: QVQLQESGPGLVRPSQTLSLTCTVSGYSITSDHAWSWVRQPPGRGLEWIGYISYSGITTYNPSLKSRVTMLRDTSKNQFSLRLSSVTAADTAVYYCARSLARTTAMDYWGQGSLVTVSS[human IgG1 constant region with N315A (EU numbers) omitted here]
light: B1 light
notes: copies: 2 + 2
B3: MRAH-G1d/MRAL-KT0 N315E (antibody, human IgG1, kappa)
heavy: QVQLQESGPGLVRPSQTLSLTCTVSGYSITSDHAWSWVRQPPGRGLEWIGYISYSGITTYNPSLKSRVTMLRDTSKNQFSLRLSSVTAADTAVYYCARSLARTTAMDYWGQGSLVTVSS[human IgG1 constant region with N315E (EU numbers) omitted here]
light: B1 light
notes: copies: 2 + 2
B4: MRAH-G1d/MRAL-KT0 N315F (antibody, human IgG1, kappa)
heavy: QVQLQESGPGLVRPSQTLSLTCTVSGYSITSDHAWSWVRQPPGRGLEWIGYISYSGITTYNPSLKSRVTMLRDTSKNQFSLRLSSVTAADTAVYYCARSLARTTAMDYWGQGSLVTVSS[human IgG1 constant region with N315F (EU numbers) omitted here]
light: B1 light
notes: copies: 2 + 2
B5: MRAH-G1d/MRAL-KT0 N315G (antibody, human IgG1, kappa)
heavy: QVQLQESGPGLVRPSQTLSLTCTVSGYSITSDHAWSWVRQPPGRGLEWIGYISYSGITTYNPSLKSRVTMLRDTSKNQFSLRLSSVTAADTAVYYCARSLARTTAMDYWGQGSLVTVSS[human IgG1 constant region with N315G (EU numbers) omitted here]
light: B1 light
notes: copies: 2 + 2
B6: MRAH-G1d/MRAL-KT0 N315H (antibody, human IgG1, kappa)
heavy: QVQLQESGPGLVRPSQTLSLTCTVSGYSITSDHAWSWVRQPPGRGLEWIGYISYSGITTYNPSLKSRVTMLRDTSKNQFSLRLSSVTAADTAVYYCARSLARTTAMDYWGQGSLVTVSS[human IgG1 constant region with N315H (EU numbers) omitted here]
light: B1 light
notes: copies: 2 + 2
B7: MRAH-G1d/MRAL-KT0 N315I (antibody, human IgG1, kappa)
heavy: QVQLQESGPGLVRPSQTLSLTCTVSGYSITSDHAWSWVRQPPGRGLEWIGYISYSGITTYNPSLKSRVTMLRDTSKNQFSLRLSSVTAADTAVYYCARSLARTTAMDYWGQGSLVTVSS[human IgG1 constant region with N315I (EU numbers) omitted here]
light: B1 light
notes: copies: 2 + 2
B8: MRAH-G1d/MRAL-KT0 N315K (antibody, human IgG1, kappa)
heavy: QVQLQESGPGLVRPSQTLSLTCTVSGYSITSDHAWSWVRQPPGRGLEWIGYISYSGITTYNPSLKSRVTMLRDTSKNQFSLRLSSVTAADTAVYYCARSLARTTAMDYWGQGSLVTVSS[human IgG1 constant region with N315K (EU numbers) omitted here]
light: B1 light
notes: copies: 2 + 2
B9: MRAH-G1d/MRAL-KT0 N315L (antibody, human IgG1, kappa)
heavy: QVQLQESGPGLVRPSQTLSLTCTVSGYSITSDHAWSWVRQPPGRGLEWIGYISYSGITTYNPSLKSRVTMLRDTSKNQFSLRLSSVTAADTAVYYCARSLARTTAMDYWGQGSLVTVSS[human IgG1 constant region with N315L (EU numbers) omitted here]
light: B1 light
notes: copies: 2 + 2
B10: MRAH-G1d/MRAL-KT0 N315M (antibody, human IgG1, kappa)
heavy: QVQLQESGPGLVRPSQTLSLTCTVSGYSITSDHAWSWVRQPPGRGLEWIGYISYSGITTYNPSLKSRVTMLRDTSKNQFSLRLSSVTAADTAVYYCARSLARTTAMDYWGQGSLVTVSS[human IgG1 constant region with N315M (EU numbers) omitted here]
light: B1 light
notes: copies: 2 + 2
B11: MRAH-G1d/MRAL-KT0 N315P (antibody, human IgG1, kappa)
heavy: QVQLQESGPGLVRPSQTLSLTCTVSGYSITSDHAWSWVRQPPGRGLEWIGYISYSGITTYNPSLKSRVTMLRDTSKNQFSLRLSSVTAADTAVYYCARSLARTTAMDYWGQGSLVTVSS[human IgG1 constant region with N315P (EU numbers) omitted here]
light: B1 light
notes: copies: 2 + 2
B12: MRAH-G1d/MRAL-KT0 N315Q (antibody, human IgG1, kappa)
heavy: QVQLQESGPGLVRPSQTLSLTCTVSGYSITSDHAWSWVRQPPGRGLEWIGYISYSGITTYNPSLKSRVTMLRDTSKNQFSLRLSSVTAADTAVYYCARSLARTTAMDYWGQGSLVTVSS[human IgG1 constant region with N315Q (EU numbers) omitted here]
light: B1 light
notes: copies: 2 + 2
B13: MRAH-G1d/MRAL-KT0 N315R (antibody, human IgG1, kappa)
heavy: QVQLQESGPGLVRPSQTLSLTCTVSGYSITSDHAWSWVRQPPGRGLEWIGYISYSGITTYNPSLKSRVTMLRDTSKNQFSLRLSSVTAADTAVYYCARSLARTTAMDYWGQGSLVTVSS[human IgG1 constant region with N315R (EU numbers) omitted here]
light: B1 light
notes: copies: 2 + 2
B14: MRAH-G1d/MRAL-KT0 N315S (antibody, human IgG1, kappa)
heavy: QVQLQESGPGLVRPSQTLSLTCTVSGYSITSDHAWSWVRQPPGRGLEWIGYISYSGITTYNPSLKSRVTMLRDTSKNQFSLRLSSVTAADTAVYYCARSLARTTAMDYWGQGSLVTVSS[human IgG1 constant region with N315S (EU numbers) omitted here]
light: B1 light
notes: copies: 2 + 2

Target: T1, PRYSPRY domain of mouse TRIM21 with …
Assay: SPR, Protein L capture
With B1 the “mTRIM21 binding level ratio (variant/control antibody)” value was 1.25.
B2 was tested, and the “mTRIM21 binding level ratio (variant/control antibody)” value was 2.29.
For B3, the “mTRIM21 binding level ratio (variant/control antibody)” value was 1.19.
For B4, the “mTRIM21 binding level ratio (variant/control antibody)” value was 2.46.
B5 was tested, and the “mTRIM21 binding level ratio (variant/control antibody)” value was 2.66.
In the case of B6, the “mTRIM21 binding level ratio (variant/control antibody)” value is reported as 2.39.
B7 was tested, and the “mTRIM21 binding level ratio (variant/control antibody)” value was 2.5.
For B8, the “mTRIM21 binding level ratio (variant/control antibody)” value was 2.78.
B9 was tested, and the “mTRIM21 binding level ratio (variant/control antibody)” value was 2.
With B10 the “mTRIM21 binding level ratio (variant/control antibody)” value was 2.39.
B11 was tested, and the “mTRIM21 binding level ratio (variant/control antibody)” value was 2.93.
In the case of B12, the “mTRIM21 binding level ratio (variant/control antibody)” value is reported as 2.31.
In the case of B13, the “mTRIM21 binding level ratio (variant/control antibody)” value is reported as 2.97.
With B14 the “mTRIM21 binding level ratio (variant/control antibody)” value was 2.7.

The binders below were run against T3, human FcRn (human, UniProt P55899 partial chain; P61769 partial chain, limits assumed) (assay: SPR, Protein L capture).
T3 construct: also called hFcRn
T3 sequence (P55899 24-290 limits assumed, form in doubt, chain 1 of 2): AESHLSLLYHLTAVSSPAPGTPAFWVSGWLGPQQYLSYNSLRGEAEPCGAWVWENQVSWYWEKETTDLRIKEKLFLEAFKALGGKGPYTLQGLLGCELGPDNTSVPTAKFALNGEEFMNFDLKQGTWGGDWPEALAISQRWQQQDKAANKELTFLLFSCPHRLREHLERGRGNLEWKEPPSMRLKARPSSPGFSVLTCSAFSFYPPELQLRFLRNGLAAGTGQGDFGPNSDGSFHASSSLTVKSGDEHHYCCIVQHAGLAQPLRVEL
T3 sequence (P61769 21-119 limits assumed, form in doubt, chain 2 of 2, further chain): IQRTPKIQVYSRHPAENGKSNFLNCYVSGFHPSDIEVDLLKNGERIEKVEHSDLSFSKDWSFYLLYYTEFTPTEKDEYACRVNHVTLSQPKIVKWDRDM
B1 was tested, and the “hFcRn binding level ratio (variant/control antibody)” value was 1.27.
For B2, the “hFcRn binding level ratio (variant/control antibody)” value was 0.05.
With B3 the “hFcRn binding level ratio (variant/control antibody)” value was 0.4.
B4 was tested, and the “hFcRn binding level ratio (variant/control antibody)” value was 0.03.
B5 was tested, and the “hFcRn binding level ratio (variant/control antibody)” value was 0.16.
B6 was tested, and the “hFcRn binding level ratio (variant/control antibody)” value was 0.41.
B7 was tested, and the “hFcRn binding level ratio (variant/control antibody)” value was 0.27.
In the case of B8, the “hFcRn binding level ratio (variant/control antibody)” value is reported as 0.8.
For B9, the “hFcRn binding level ratio (variant/control antibody)” value was 0.94.
For B10, the “hFcRn binding level ratio (variant/control antibody)” value was 0.88.
With B11 the “hFcRn binding level ratio (variant/control antibody)” value was 0.34.
B12 was tested, and the “hFcRn binding level ratio (variant/control antibody)” value was 0.87.
B13 was tested, and the “hFcRn binding level ratio (variant/control antibody)” value was 0.13.
With B14 the “hFcRn binding level ratio (variant/control antibody)” value was 0.13.

Target: T2, PRYSPRY domain of human TRIM21 with …
Assay: SPR, Protein L capture
For B1, the “hTRIM21 binding level ratio (variant/control antibody)” value was 0.699.
With B2 the “hTRIM21 binding level ratio (variant/control antibody)” value was 0.943.
In the case of B3, the “hTRIM21 binding level ratio (variant/control antibody)” value is reported as 0.61.
With B4 the “hTRIM21 binding level ratio (variant/control antibody)” value was 0.991.
In the case of B5, the “hTRIM21 binding level ratio (variant/control antibody)” value is reported as 1.09.
In the case of B6, the “hTRIM21 binding level ratio (variant/control antibody)” value is reported as 0.88.
For B7, the “hTRIM21 binding level ratio (variant/control antibody)” value was 1.25.
With B8 the “hTRIM21 binding level ratio (variant/control antibody)” value was 0.994.
For B9, the “hTRIM21 binding level ratio (variant/control antibody)” value was 1.13.
In the case of B10, the “hTRIM21 binding level ratio (variant/control antibody)” value is reported as 1.3.
With B11 the “hTRIM21 binding level ratio (variant/control antibody)” value was 1.21.
In the case of B12, the “hTRIM21 binding level ratio (variant/control antibody)” value is reported as 1.21.
For B13, the “hTRIM21 binding level ratio (variant/control antibody)” value was 1.18.
For B14, the “hTRIM21 binding level ratio (variant/control antibody)” value was 1.18.

From patent US20210238308A1 (Chugai, published 2021)
